# Assay results from paper PMC6423038, “Deferiprone: Pan-selective Histone Lysine Demethylase Inhibition Activity and Structure Activity Relationship Study” (Scientific Reports, 2019).
# Test system: H3K4me3 and H3K27me3 levels in MDA-MB-231 cells
# Format: cell-based, human
# Conditions: Western blot
row,Structure (SMILES),H3K4me3 and H3K27me3 levels
1,Cc1c(O)c(=O)ccn1CCCCCn1cc(-c2ccccc2)nn1 [1d],dose-dependent increase
2,Cc1c(O)c(=O)ccn1CCCCCCn1cc(-c2ccc(-c3ccncc3)cc2)nn1 [2u],dose-dependent increase
3,"Cc1c(O)c(=O)ccn1C [DFP, Deferiprone]",dose-dependent upregulation
